Data taken from paper PMC5703999, “The E. coli dicarboxylic acid transporters DauA act as a signal transducer by interacting with the DctA uptake system” (Scientific Reports, 2017).
Results are given in words; binding and its absence hold for the method and conditions named. For part of these data: In cells and extracts the contact can be indirect. Some binding calls cover weakened binding; strength is not graded here. Tags and fused reporters may be left off the sequences shown.

B1: Chromosomally encoded FLAG-tagged DctA (protein, UniProt P0A830 1-428)
chain: MKTSLFKSLYFQVLTAIAIGILLGHFYPEIGEQMKPLGDGFVKLIKMIIAPVIFCTVVTGIAGMESMKAVGRTGAVALLYFEIVSTIALIIGLIIVNVVQPGAGMNVDPATLDAKAVAVYADQAKDQGIVAFIMDVIPASVIGAFASGNILQVLLFAVLFGFALHRLGSKGQLIFNVIESFSQVIFGIINMIMRLAPIGAFGAMAFTIGKYGVGTLVQLGQLIICFYITCILFVVLVLGSIAKATGFSIFKFIRYIREELLIVLGTSSSESALPRMLDKMEKLGCRKSVVGLVIPTGYSFNLDGTSIYLTMAAVFIAQATNSQMDIVHQITLLIVLLLSSKGAAGVTGSGFIVLAATLSAVGHLPVAGLALILGIDRFMSEARALTNLVGNGVATIVVAKWVKELDHKKLDDVLNNRAPDGKTHELSS
B2: Chromosomally encoded C-terminally His-tagged DauA (protein, UniProt P0AFR2 1-559)
chain: MNKIFSSHVMPFRALIDACWKEKYTAARFTRDLIAGITVGIIAIPLAMALAIGSGVAPQYGLYTAAVAGIVIALTGGSRFSVSGPTAAFVVILYPVSQQFGLAGLLVATLLSGIFLILMGLARFGRLIEYIPVSVTLGFTSGIGITIGTMQIKDFLGLQMAHVPEHYLQKVGALFMALPTINVGDAAIGIVTLGILVFWPRLGIRLPGHLPALLAGCAVMGIVNLLGGHVATIGSQFHYVLADGSQGNGIPQLLPQLVLPWDLPNSEFTLTWDSIRTLLPAAFSMAMLGAIESLLCAVVLDGMTGTKHKANSELVGQGLGNIIAPFFGGITATAAIARSAANVRAGATSPISAVIHSILVILALLVLAPLLSWLPLSAMAALLLMVAWNMSEAHKVVDLLRHAPKDDIIVMLLCMSLTVLFDMVIAISVGIVLASLLFMRRIARMTRLAPVVVDVPDDVLVLRVIGPLFFAAAEGLFTDLESRLEGKRIVILKWDAVPVLDAGGLDAFQRFVKRLPEGCELRVCNVEFQPLRTMARAGIQPIPGRLAFFPNRRAAMADL
B3: DauA(1-444), truncated DauA lacking the STAS domain, two-hybrid fusion (domain or fragment, UniProt P0AFR2 1-444)
chain: MNKIFSSHVMPFRALIDACWKEKYTAARFTRDLIAGITVGIIAIPLAMALAIGSGVAPQYGLYTAAVAGIVIALTGGSRFSVSGPTAAFVVILYPVSQQFGLAGLLVATLLSGIFLILMGLARFGRLIEYIPVSVTLGFTSGIGITIGTMQIKDFLGLQMAHVPEHYLQKVGALFMALPTINVGDAAIGIVTLGILVFWPRLGIRLPGHLPALLAGCAVMGIVNLLGGHVATIGSQFHYVLADGSQGNGIPQLLPQLVLPWDLPNSEFTLTWDSIRTLLPAAFSMAMLGAIESLLCAVVLDGMTGTKHKANSELVGQGLGNIIAPFFGGITATAAIARSAANVRAGATSPISAVIHSILVILALLVLAPLLSWLPLSAMAALLLMVAWNMSEAHKVVDLLRHAPKDDIIVMLLCMSLTVLFDMVIAISVGIVLASLLFMRRIAR
B4: AmtB (ammonium transporter), two-hybrid fusion (natural protein, UniProt P69681 1-428, looked up)
chain: MKIATIKTGLASLAMLPGLVMAAPAVADKADNAFMMICTALVLFMTIPGIALFYGGLIRGKNVLSMLTQVTVTFALVCILWVVYGYSLAFGEGNNFFGNINWLMLKNIELTAVMGSIYQYIHVAFQGSFACITVGLIVGALAERIRFSAVLIFVVVWLTLSYIPIAHMVWGGGLLASHGALDFAGGTVVHINAAIAGLVGAYLIGKRVGFGKEAFKPHNLPMVFTGTAILYIGWFGFNAGSAGTANEIAALAFVNTVVATAAAILGWIFGEWALRGKPSLLGACSGAIAGLVGVTPACGYIGVGGALIIGVVAGLAGLWGVTMLKRLLRVDDPCDVFGVHGVCGIVGCIMTGIFAASSLGGVGFAEGVTMGHQLLVQLESIAITIVWSGVVAFIGYKLADLTVGLRVPEEQEREGLDVNSHGENAYNA
notes: Ammonium transporter AmtB; source: bacterial two-hybrid fusion, in E. coli BTH101 (cyaA-)
B5: DcuS fused to the T18 or T25 domain of adenylate cyclase (natural protein, E. coli, UniProt P0AEC8 1-543, looked up)
chain: MRHSLPYRMLRKRPMKLSTTVILMVSAVLFSVLLVVHLIYFSQISDMTRDGLANKALAVARTLADSPEIRQGLQKKPQESGIQAIAEAVRKRNDLLFIVVTDMQSLRYSHPEAQRIGQPFKGDDILKALNGEENVAINRGFLAQALRVFTPIYDENHKQIGVVAIGLELSRVTQQINDSRWSIIWSVLFGMLVGLIGTCILVKVLKKILFGLEPYEISTLFEQRQAMLQSIKEGVVAVDDRGEVTLINDAAQELLNYRKSQDDEKLSTLSHSWSQVVDVSEVLRDGTPRRDEEITIKDRLLLINTVPVRSNGVIIGAISTFRDKTEVRKLMQRLDGLVNYADALRERSHEFMNKLHVILGLLHLKSYKQLEDYILKTANNYQEEIGSLLGKIKSPVIAGFLISKINRATDLGHTLILNSESQLPDSGSEDQVATLITTLGNLIENALEALGPEPGGEISVTLHYRHGWLHCEVNDDGPGIAPDKIDHIFDKGVSTKGSERGVGLALVKQQVENLGGSIAVESEPGIFTQFFVQIPWDGERSNR
notes: Membrane embedded sensor histidine kinase DcuS, E. coli; also called DcuS-T18; DcuS-T25; source: bacterial two-hybrid fusion (pUT18 or pKNT25), in E. coli BTH101 (cyaA-); not shown: T18 or T25 domain of Bordetella pertussis adenylate cyclase CyaA, C-terminal, kept
B6: Isolated STAS domain of DauA fused to the T18 or the T25 domain of adenylate cyclase (domain or fragment, UniProt P0AFR2 449-559)
chain: APVVVDVPDDVLVLRVIGPLFFAAAEGLFTDLESRLEGKRIVILKWDAVPVLDAGGLDAFQRFVKRLPEGCELRVCNVEFQPLRTMARAGIQPIPGRLAFFPNRRAAMADL

Key:
[1] = molecular target: T1, Chromosomally encoded C-terminally His-tagged DauA (E. coli K-12) (UniProt P0AFR2); assay: pull-down; EK9 membrane proteins (2% DDM) incubated with cobalt sepharose beads 1 h at 4 °C; DauA-His eluted with 500 mM imidazole; elution fractions blotted with anti-His, anti-FLAG and anti-DcuS
T1 sequence: B2 chain

[2] = molecular target: T2, Chromosomally encoded FLAG-tagged DctA (E. coli K-12) (UniProt P0A830); assay: co-IP; IMAC elution fractions of EK9 re-purified on anti-FLAG M2 affinity gel, eluted with 0.1 M glycine HCl pH 3; blots with anti-His and anti-FLAG
T2 sequence: B1 chain

[3] = molecular target: T3, DctA fused to the T18 or T25 domain of adenylate cyclase (E. coli) (UniProt P0A830); assay: two-hybrid; bacterial two-hybrid (BTH): T18 and T25 fusions co-transformed in E. coli BTH101 (cyaA-), grown overnight in LB at 30 °C; beta-galactosidase activity; background below 150 Miller units; the reporter strain expresses chromosomal DctA and DcuS
T3 sequence: B1 chain

[4] = molecular target: T4, DauA fused to the T18 or T25 domain of adenylate cyclase (E. coli) (UniProt P0AFR2); assay: as above
T4 sequence: B2 chain

Binder | binding [1] | binding [3] | further results
B1 | binds | – | –
B2 | – | – | binding [2]: binds
B3 | – | binds | –
B4 | – | – | binding [4]: no binding (tested: below 150 Miller units (background))
B5 | no binding | – | –
B6 | – | no binding | –
